Measurements from patent US20120134993A1 (ZymoGenetics, published 2012).

T1: recombinant human FGF-8b (human, UniProt P55075-3 23-215)
T1 sequence (looked up): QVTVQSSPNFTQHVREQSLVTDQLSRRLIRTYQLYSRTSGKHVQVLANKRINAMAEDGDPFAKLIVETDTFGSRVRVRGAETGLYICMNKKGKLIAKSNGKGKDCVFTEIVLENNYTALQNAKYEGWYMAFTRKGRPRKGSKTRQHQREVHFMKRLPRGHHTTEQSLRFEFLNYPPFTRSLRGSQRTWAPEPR

B1: FGFR2alphaIIIc([…]) Fc5, full-length FGFR2-Fc (A2556F) (Fc fusion)
chain: not shown
notes: also called FGFR2 A2556F; construct #1945
B2: FGFR2alphaIIIc([…])(P253R) Fc5, full-length FGFR2-Fc P253R (A2558F) (Fc fusion)
chain: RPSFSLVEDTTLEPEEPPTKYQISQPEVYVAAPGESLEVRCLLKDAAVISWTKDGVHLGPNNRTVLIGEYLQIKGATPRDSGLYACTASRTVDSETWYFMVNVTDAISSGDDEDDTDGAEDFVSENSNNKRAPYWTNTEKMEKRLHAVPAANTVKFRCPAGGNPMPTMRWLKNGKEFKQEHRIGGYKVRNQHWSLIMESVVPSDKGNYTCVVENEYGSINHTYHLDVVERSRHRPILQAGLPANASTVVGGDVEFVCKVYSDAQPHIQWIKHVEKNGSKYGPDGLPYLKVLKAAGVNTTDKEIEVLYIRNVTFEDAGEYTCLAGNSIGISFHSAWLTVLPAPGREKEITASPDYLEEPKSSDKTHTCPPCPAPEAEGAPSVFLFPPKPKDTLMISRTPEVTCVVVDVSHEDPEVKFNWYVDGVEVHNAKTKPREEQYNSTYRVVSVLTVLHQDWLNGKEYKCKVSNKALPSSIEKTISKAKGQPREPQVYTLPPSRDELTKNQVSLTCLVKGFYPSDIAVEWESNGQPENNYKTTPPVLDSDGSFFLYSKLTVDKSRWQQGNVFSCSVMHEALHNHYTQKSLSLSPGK
notes: also called FGFR2 A2558F; construct #1947
B3: FGFR2alphaIIIc([…])(S252W) Fc5, full-length FGFR2-Fc S252W (A2557F) (Fc fusion)
chain: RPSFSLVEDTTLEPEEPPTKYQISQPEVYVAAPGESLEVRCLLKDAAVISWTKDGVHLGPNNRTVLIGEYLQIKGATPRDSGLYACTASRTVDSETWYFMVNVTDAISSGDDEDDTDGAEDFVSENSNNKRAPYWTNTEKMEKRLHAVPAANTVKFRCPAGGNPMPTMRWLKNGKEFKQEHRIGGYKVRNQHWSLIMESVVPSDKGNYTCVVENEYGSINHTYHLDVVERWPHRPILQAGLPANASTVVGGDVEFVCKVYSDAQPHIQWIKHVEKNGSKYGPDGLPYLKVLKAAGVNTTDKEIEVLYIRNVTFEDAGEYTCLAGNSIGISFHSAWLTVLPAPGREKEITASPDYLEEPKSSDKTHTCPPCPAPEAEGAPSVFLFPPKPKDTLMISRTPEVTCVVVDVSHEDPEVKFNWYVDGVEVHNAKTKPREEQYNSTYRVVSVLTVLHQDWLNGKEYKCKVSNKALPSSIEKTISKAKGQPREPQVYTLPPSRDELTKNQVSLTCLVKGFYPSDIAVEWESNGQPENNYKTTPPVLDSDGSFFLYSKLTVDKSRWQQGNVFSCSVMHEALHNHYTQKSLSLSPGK
notes: also called FGFR2 A2557F; construct #1946

Biological target: T1, recombinant human FGF-8b
Assay: ELISA, FGF coated, FGFR-Fc titrated with heparin
Description: To determine the binding capability of FGFR-Fc to their respective ligands, an ELISA was run. Recombinant human FGF-8b or FGF-17 (R&D Systems) was plated at 100 nM on a Nunc Maxisorp 96-well plate for 1 h at room temperature with shaking. The plates were blocked with BLOTTO (Thermo Fisher Scientific, Rockford, Ill.) for 1 h at room temperature, then washed 5 times with ELISA C buffer (137 mM NaCl, 2.7 mM KCl, 7.2 mM Na₂HPO₄, 1.5 mM KH₂PO₄, 0.05% (v/w) polysorbate 20, pH 7.2). FGFR-Fcs were diluted to 100 nM with PBS/0.1×BLOTTO/10 ug/ml porcine heparin (Sigma, St. Louis, Mo.) and then 1:2 serial dilutions were made, ending at 0.10 nM. 100 μL of FGFR-Fcs were plated and incubated at 4° C. overnight. The following day, the plates were washed 5 times with ELISA C and then incubated with 2.5 μg/mL horseradish peroxidase-conjugated anti-human Fc antibody (Jackson ImmunoResearch Laboratories, West Grove, Pa.) for 1 h at room temperature with shaking. After 5 washes with ELISA C, 100 μL of OPD in citrate buffer (5 mg of o-phenylenediamine in 63 mM sodium citrate, 37 mM citric acid, pH 5.0, 0.03% H₂O₂) was added for detection. After 2-5 minutes, the reaction was stopped with 1 N H₂SO₄. The plates were read at 490 nm using SoftMaxPro software.

| Binder | binding result |
| --- | --- |
| B1 | no binding (tested: 100 nM (highest concentration tested)) |
| B2 | no binding (tested: 100 nM (highest concentration tested)) |
| B3 | no binding (tested: 100 nM (highest concentration tested)) |
